# About 14,000 (4.5%) of roughly 310,000 compounds showed an effect of 50% or more. The effect is printed as a negative number. The list shows a part of the results.
# Target: human ether-à-go-go-related gene (hERG) potassium channel (human, UniProt Q12809)
# Test: primary screen, population patch clamp on CHO cells stably expressing hERG
# 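Also: peak tail current of the secondary pulse compared with the same well before compound.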
# Chain of human ether-à-go-go-related gene (hERG) potassium channel (Q12809 whole entry, looked up): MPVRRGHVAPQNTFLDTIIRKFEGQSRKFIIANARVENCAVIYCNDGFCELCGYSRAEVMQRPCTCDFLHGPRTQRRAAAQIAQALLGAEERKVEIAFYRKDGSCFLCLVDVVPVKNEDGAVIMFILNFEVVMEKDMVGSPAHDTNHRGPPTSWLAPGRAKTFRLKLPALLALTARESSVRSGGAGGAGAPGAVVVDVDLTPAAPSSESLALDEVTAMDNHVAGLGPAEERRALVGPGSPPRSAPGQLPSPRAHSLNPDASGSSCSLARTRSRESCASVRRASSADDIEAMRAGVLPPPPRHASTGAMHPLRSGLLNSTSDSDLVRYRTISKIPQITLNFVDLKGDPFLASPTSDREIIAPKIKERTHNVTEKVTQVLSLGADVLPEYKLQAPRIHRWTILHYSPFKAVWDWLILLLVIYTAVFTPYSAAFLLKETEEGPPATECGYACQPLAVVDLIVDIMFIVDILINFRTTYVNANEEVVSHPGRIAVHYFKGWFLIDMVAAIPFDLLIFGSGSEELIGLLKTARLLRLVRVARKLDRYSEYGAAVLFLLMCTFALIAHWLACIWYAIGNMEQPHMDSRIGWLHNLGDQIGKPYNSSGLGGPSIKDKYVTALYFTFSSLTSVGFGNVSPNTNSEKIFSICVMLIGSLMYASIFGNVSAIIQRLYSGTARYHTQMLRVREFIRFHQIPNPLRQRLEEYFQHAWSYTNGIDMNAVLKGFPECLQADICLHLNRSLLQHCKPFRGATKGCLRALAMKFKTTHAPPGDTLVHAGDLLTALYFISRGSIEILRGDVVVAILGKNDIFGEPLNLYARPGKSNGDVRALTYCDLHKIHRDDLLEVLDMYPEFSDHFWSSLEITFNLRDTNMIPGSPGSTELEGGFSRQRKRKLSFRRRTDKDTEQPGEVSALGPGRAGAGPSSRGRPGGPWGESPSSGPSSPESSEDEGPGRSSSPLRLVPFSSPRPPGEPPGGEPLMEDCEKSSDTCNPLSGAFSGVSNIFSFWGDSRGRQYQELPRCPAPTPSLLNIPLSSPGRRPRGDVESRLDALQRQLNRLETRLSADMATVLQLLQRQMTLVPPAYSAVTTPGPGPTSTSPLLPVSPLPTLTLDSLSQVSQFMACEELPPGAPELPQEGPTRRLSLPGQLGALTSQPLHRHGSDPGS
row,SMILES,"hERG current change (%, negative = inhibition) at 10uM [%]"
1,CCC(C)[C@H](NC(=O)NCc1ccco1)C(=O)OC (stereo partly drawn),2.22
2,O=c1[nH]c(=O)n(Cc2ccco2)c(O)c1/C=N/N1CCCCC1,3.21
3,CNC(=O)c1c(O)c2cccc3c2n(c1=O)CC3,-8.81
4,O=C(CCCCCn1c(=S)[nH]c2ccc(N3CCOCC3)cc2c1=O)NC1CCN(Cc2ccccc2)CC1,-9.35
5,COc1ccc(NC(=O)CSc2nnnn2C2CCCCC2)c(OC)c1,5.68
6,COc1ccccc1NC(=S)NCc1ccc2c(c1)OCO2,2.34
7,c1ccc(-c2nc[nH]c2-c2ccccc2)cc1,0.582
8,CCCOC(=O)c1ccc(NC(=O)c2cc(OC)c(OC)c(OC)c2Br)cc1,8.82
9,NC(=O)NC(=O)CC1S/C(=N/N=C2/NC(=O)CS2)NC1=O (stereo not drawn),11.5
10,CC(c1nnc(SCC(=O)Nc2ccc3[nH]c(=O)[nH]c3c2)n1Cc1ccccc1)N(C)C (stereo not drawn),5.17
11,O=C(Nc1ccc(S(=O)(=O)Nc2ncccn2)cc1)c1cncc(Br)c1,10.6
12,Cc1ccc2nc3c(c(C(=O)OCC(=O)NC4CCS(=O)(=O)C4)c2c1)CCCC3 (stereo not drawn),-3.23
13,Cc1ccccc1OCCn1c(CCNC(=O)C(C)C)nc2ccccc21,-6.24
14,O=C(COc1ccc(Br)cc1Br)NC1CCS(=O)(=O)C1 (stereo not drawn),-13.4
15,COC(=O)c1ccc(OCC(O)CNC2CCCC2)cc1.Cl (stereo not drawn),13.3
16,O=C(OCc1nnc(-c2ccccc2)o1)c1cc(=O)[nH]c2ccccc12,16.7
17,CC1CCCC(C)N1C(=O)COc1ccc(F)cc1 (stereo not drawn),4.28
18,CCC(C)NC(=O)c1cnn2c1NC(c1cccs1)CC2C(F)(F)F (stereo not drawn),-11.3
19,CCOc1ccc(OCC)c(NC(=O)CCCN2C(=S)NC(C)(C)CC2C)c1 (stereo not drawn),2.95
20,COc1ccc(-c2noc(C3CCCN(S(=O)(=O)c4ccc(C)c(Cl)c4)C3)n2)cc1OC (stereo not drawn),6.21
21,C=CCn1c(C(CCCC)CC(O)COCC(C)C)n[nH]c1=S (stereo not drawn),1.88
22,COc1ccc(C)cc1NCc1ccc([N+](=O)[O-])cc1,-0.771
23,OCCNc1nc(Nc2cc(Cl)ccc2OC2CCCC2)nc(N2CCCC2)n1,13.5

row,SMILES,"hERG current change (%, negative = inhibition) at 10uM [%]"
1,O=C(CSc1nnc2ccccn12)N1CCOCC1,8.28
2,COc1ccc(NC(=O)Nn2cnnc2)cc1OC,20.7
3,Cc1ccc(NC(=O)C(C)N2CCOCC2)c(C(=O)c2ccccc2)c1 (stereo not drawn),-26.9
4,CCCc1cc(=O)[nH]c(SC/C=C/c2ccccc2)n1,9.33
5,COc1ccc(S(=O)(=O)N2CN3CCN(C3)C2)cc1,6.13
6,O=C(CN1C(=O)NC2(CCCCC2)C1=O)NCCCSc1ccccc1,-18.4
7,CC(=O)Nc1cccc(NC(=O)CSc2nc(=O)n(CCN3CCOCC3)c3c2CCCC3)c1,0.233
8,O=C(CSc1ncnc2c1oc1ccccc12)Nc1cccc(Cl)c1,-2.16
9,O=C(c1cc2sccc2n1Cc1ccc(F)cc1)N1CCN(c2nc3ccccc3s2)CC1,-20.8
10,Cc1ccc2c(C)c(C(=O)N3CCN(Cc4ccc5c(c4)OCO5)CC3)oc2c1C,2.23
11,CSC1=C(C#N)C(c2ccc(C(C)C)cc2)CC(=O)N1 (stereo not drawn),5.77
12,Br.c1ccc2c(c1)ncn2CCN1CCCCC1,5.39
13,CCN(CC)C(=O)CCCC(=O)N(CC)CC,19.3
14,O=C(Nc1ccc(Cl)cc1)N1CCOC12CCC1(CC2)OCCO1,4.33
15,Cc1cc(C)n(CCCNC(=O)c2ccco2)n1,4.14
16,Cc1nc(N2CCN(Cc3ccccc3)CC2)nc2c1CCC2,-36.7
17,CC1CCN(C(=O)CCc2nc3cc(S(=O)(=O)N(C)C)ccc3n2C)CC1,-3.13
18,O=C(Cn1nc(-c2ccc(Cl)cc2)ccc1=O)N1CCC2(CC1)OCCO2,-6.85
19,O=C(Nc1ccccc1O)c1ccc(C(=O)c2ccccc2)o1,11.2
20,COc1ccccc1C(=O)Nc1ccc(C(=O)O)cc1,9.84
21,CO/N=C1\CCn2c1c(C)c1ccccc12,7.1
22,O=C(CN1C(=O)c2cccnc2Oc2ccc(Cl)cc21)N1CCCCCC1,-14.8
23,O=C(CCc1ccccc1)Nc1cc(C(=O)O)cc(C(=O)O)c1,20.4

row,SMILES,"hERG current change (%, negative = inhibition) at 10uM [%]"
1,COc1cc(SC)ccc1C(=O)OCC(=O)NCC(C)C,45.1
2,CS(=O)(=O)n1nc(-c2ccc(Cl)cc2)nc1N,3.95
3,CCOC(=O)CSc1nc2ccccc2c(=O)n1-c1ccc(C(=O)NCCOC)cc1,-19.1
4,CCCn1cnc2sc(C(N)=O)c(C)c2c1=O,12.1
5,c1ccc2c(c1)OCC(c1csc3ncnc(N4CCOCC4)c13)O2 (stereo not drawn),13.8
6,O=C(CN1C(=O)S/C(=C\c2ccc(F)cc2)C1=O)NC1C=CS(=O)(=O)C1 (stereo not drawn),15.4
7,COc1ccc(Cl)cc1NC(=O)CSc1nnc(CNC(=O)c2cccs2)o1,-39.8
8,CC(=O)c1sc2nsc(SCCN3CCCCC3)c2c1N,-3.38
9,N#CC1(NC(=O)COC(=O)CN2C(=O)c3ccccc3C2=O)CCCCC1,-12.2
10,COC(=O)C1CCN(C(=O)c2oc3c(Cl)cc(C)cc3c2C)CC1,-16.6
11,Br.O=C(Cn1c(NCCO)nc2ccccc21)c1ccc([N+](=O)[O-])cc1,12
12,COc1ccc2[nH]c3c(c2c1)CCN1C(=O)N([C@@H](C)C(=O)NCc2c(F)cccc2Cl)C(=O)[C@]31C,-21.3
13,Cc1cccc(OCC(=O)N/N=C/c2sc(=O)n(Cc3cccc(C(=O)O)c3)c2Cl)c1,13.2
14,CCC(c1nnc(SCC(=O)Nc2ccc(N3CCOCC3)cc2)n1Cc1ccccc1)N(C)C (stereo not drawn),-0.198
15,CC(OC(=O)c1cc(Br)ccc1O)C(=O)NC1(C#N)CCCCC1 (stereo not drawn),27.3
16,C/C(=N/NC(=O)c1ccc(C)s1)c1cccc(NC(=O)COc2ccc(Cl)cc2Cl)c1,7.81
17,COc1ccc(-c2cc(C(F)(F)F)n3nc(C(=O)N4CCN(C(=O)c5ccco5)CC4)cc3n2)cc1,-0.929
18,Cc1ccc(N2CN=C3SCC(=O)N3C2)cc1C,-9.34
19,Cc1ccc2nc(-c3ccccc3N)[nH]c2c1,-4.46
20,Cc1ccc(CSc2ccc3nnc(-c4cccnc4)n3n2)cc1,-79.3
21,O=C(N/N=C/c1ccccc1C(=O)O)c1ccccc1Br,20.6
22,Cc1ccc(S(=O)(=O)N2CCN(C(=O)CN3CCCCC3)C2C(C)C)cc1 (stereo not drawn),-17.6
23,COc1cc(CC(=O)Nc2ccc3nc(SC)sc3c2)cc(OC)c1OC,1.95

row,SMILES,"hERG current change (%, negative = inhibition) at 10uM [%]"
1,O=C1CC(c2ccc(S(=O)(=O)NCc3ccccc3)cc2)CN1 (stereo not drawn),-11.9
2,Nn1c(Cc2cccc3ccccc23)nnc1SCc1ccc(Cl)c(Cl)c1,14.4
3,O=C(c1ccc(F)cc1)N1CCC(O)(c2cccnc2)CC1,0.227
4,Cc1ccc(CN2C(=O)C3CCCN3c3ccc(C#N)cc32)cc1 (stereo not drawn),7.93
5,CSCCC(NC(=O)c1ccccc1)C(=O)N/N=C(\C)c1ccccc1 (stereo not drawn),-11.7
6,CCN(C(=O)CSc1nncn1-c1ccccc1)c1c(N)n(Cc2ccccc2)c(=O)[nH]c1=O,5.42
7,CC(C)C[C@H](NC(=O)OC(C)(C)C)C(=O)N[C@@H](CO)[C@H](O)[C@@H]1C[C@@H]1C(=O)N1CCCC1,-15.3
8,Cc1nccn1-c1ccc(C(F)(F)F)cc1NC=O,9.37
9,CCCCN1C(=O)C2(NNc3ccccc3O2)c2ccccc21 (stereo not drawn),-34.1
10,CC(=O)Nc1ccc2c(c1)N(S(=O)(=O)c1cccs1)CCC2,-3.79
11,Cc1ccc(CSC2=Nc3ccccc3C3=NC(=O)CN23)cc1,4.54
12,Cc1ccc2[nH]c(C(=O)N3CCN(c4cccc(Cl)c4)CC3)cc2c1,9.35
13,Cc1ccc2c(CC(=O)Nc3ccc(N4CCN(C)CC4)cc3C)coc2c1,-72.8
14,S=c1[nH]nc(-c2cc(-c3ccco3)[nH]n2)n1-c1ccccc1Cl,12.6
15,CSc1ccccc1NC(=O)CSCc1ccc(C)cc1,-7.79
16,C=CCn1c(SCC(=O)NC(=O)NC2CCCC2)nnc1C1CCCCC1,3.7
17,Clc1ccc(-n2ncc3c(NCc4ccc5c(c4)OCO5)ncnc32)cc1,12.7
18,CC[N+](C)(C)CC/C=C1/c2ccccc2Sc2ccc(Cl)cc21.[Br-],-25.3
19,CC(=O)N1c2ccccc2C(C)CC12CCCCC2 (stereo not drawn),-1.59
20,C=C(C)Cc1c(C)c(C#N)c2[nH]c3ccccc3n2c1=O,23.2
21,COc1ccc([N+](=O)[O-])cc1NC(=O)CSc1nncn1-c1ccccc1,-14
